These results are taken from PMC11905140.

Chains of the proteins cited; added tags and fusions are not shown. Lines headed by an entry give the natural chain unless they say otherwise; changes in a name come on top. A line that says so, or that is headed by a name, gives the form on record, which may keep a tag or linker. Residues count along the entry.
UniProt O75362: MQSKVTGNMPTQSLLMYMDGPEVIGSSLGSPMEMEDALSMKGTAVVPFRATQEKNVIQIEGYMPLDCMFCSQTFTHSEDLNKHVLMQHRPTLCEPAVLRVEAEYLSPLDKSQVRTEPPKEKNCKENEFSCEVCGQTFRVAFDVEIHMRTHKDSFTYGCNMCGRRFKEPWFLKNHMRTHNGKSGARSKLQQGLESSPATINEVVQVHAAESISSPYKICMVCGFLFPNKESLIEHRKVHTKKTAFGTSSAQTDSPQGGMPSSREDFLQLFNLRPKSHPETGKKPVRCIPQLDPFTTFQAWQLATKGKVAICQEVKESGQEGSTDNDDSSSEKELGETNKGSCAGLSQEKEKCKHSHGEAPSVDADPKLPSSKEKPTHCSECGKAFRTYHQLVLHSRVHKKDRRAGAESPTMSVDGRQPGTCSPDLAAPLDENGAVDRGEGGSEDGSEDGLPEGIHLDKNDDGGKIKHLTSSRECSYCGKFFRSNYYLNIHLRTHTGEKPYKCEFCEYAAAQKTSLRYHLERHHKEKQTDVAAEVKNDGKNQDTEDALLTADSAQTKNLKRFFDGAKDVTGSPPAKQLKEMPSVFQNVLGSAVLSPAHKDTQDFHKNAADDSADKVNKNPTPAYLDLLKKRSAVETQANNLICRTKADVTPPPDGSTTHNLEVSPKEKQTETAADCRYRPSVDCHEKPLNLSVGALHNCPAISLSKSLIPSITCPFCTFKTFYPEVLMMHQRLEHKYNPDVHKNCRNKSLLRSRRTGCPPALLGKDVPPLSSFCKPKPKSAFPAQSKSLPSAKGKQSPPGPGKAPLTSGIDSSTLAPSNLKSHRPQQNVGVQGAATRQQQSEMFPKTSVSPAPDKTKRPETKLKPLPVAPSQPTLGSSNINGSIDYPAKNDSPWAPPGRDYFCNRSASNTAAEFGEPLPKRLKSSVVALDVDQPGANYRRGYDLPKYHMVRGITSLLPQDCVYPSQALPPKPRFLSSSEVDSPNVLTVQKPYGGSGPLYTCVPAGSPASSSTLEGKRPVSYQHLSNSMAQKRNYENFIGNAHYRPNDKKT
Flag-tagged ZNF217_(1-272) truncation: residues 1-272 of O75362
UniProt Q9Y6M1: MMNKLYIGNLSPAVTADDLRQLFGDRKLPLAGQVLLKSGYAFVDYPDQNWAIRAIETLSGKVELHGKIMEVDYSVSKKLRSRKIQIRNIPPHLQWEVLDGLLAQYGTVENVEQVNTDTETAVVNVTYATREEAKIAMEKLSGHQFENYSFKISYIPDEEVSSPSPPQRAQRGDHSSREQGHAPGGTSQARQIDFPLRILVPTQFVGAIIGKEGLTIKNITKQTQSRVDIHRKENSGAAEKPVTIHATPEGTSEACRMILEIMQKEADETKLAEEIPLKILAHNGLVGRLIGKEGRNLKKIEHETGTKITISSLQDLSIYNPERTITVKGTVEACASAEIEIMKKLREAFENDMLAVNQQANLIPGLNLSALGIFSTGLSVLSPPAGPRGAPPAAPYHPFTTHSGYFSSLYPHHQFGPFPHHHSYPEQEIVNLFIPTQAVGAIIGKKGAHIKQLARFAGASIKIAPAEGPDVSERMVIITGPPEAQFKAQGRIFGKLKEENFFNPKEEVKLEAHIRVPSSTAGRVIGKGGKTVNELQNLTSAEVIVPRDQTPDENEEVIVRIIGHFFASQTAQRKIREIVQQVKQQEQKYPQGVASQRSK
UniProt Q9UKL0: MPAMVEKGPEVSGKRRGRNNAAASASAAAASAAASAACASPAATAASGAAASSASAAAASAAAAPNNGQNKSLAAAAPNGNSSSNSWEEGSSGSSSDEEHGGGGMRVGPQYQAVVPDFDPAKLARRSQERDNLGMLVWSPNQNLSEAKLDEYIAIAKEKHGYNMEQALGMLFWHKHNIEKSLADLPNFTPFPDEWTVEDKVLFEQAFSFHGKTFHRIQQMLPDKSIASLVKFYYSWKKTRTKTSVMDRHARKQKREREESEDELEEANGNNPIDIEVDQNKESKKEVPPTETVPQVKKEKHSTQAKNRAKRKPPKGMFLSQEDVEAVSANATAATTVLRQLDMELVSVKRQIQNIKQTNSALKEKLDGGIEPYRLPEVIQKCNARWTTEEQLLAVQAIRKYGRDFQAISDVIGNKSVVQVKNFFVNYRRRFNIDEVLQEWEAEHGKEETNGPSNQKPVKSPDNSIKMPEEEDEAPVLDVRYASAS
UniProt Q9H4Z3: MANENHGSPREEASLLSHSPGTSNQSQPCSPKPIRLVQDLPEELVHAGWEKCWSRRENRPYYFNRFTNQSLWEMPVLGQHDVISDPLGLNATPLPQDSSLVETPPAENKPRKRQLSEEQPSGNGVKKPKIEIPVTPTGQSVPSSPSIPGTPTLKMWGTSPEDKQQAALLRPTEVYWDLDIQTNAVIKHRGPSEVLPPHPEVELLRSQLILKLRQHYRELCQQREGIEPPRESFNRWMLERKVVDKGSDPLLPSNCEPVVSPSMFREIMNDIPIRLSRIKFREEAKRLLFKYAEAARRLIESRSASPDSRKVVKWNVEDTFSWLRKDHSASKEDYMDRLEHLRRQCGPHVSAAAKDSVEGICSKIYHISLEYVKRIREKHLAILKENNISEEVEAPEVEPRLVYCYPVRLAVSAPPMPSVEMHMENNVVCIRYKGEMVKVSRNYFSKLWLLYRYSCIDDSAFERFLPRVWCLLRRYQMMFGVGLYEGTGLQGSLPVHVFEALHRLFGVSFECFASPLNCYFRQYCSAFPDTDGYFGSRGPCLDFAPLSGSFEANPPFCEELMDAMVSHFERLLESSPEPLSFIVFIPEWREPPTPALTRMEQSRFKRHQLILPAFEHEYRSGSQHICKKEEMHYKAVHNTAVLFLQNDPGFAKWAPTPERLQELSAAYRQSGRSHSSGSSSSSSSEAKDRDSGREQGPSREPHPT
UniProt Q13547: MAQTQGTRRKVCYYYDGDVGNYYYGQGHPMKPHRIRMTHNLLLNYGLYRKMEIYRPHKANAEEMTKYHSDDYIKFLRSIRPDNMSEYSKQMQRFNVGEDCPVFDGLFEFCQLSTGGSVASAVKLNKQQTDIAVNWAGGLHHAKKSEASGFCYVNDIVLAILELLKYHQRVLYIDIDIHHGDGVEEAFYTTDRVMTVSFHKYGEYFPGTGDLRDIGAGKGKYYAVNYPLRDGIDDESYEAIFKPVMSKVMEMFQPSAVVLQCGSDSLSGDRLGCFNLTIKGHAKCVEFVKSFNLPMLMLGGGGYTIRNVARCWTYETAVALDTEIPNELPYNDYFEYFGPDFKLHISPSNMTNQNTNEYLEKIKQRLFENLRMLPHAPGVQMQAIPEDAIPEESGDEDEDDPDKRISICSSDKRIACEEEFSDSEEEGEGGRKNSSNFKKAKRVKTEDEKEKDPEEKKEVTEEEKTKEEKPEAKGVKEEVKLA
UniProt Q92769: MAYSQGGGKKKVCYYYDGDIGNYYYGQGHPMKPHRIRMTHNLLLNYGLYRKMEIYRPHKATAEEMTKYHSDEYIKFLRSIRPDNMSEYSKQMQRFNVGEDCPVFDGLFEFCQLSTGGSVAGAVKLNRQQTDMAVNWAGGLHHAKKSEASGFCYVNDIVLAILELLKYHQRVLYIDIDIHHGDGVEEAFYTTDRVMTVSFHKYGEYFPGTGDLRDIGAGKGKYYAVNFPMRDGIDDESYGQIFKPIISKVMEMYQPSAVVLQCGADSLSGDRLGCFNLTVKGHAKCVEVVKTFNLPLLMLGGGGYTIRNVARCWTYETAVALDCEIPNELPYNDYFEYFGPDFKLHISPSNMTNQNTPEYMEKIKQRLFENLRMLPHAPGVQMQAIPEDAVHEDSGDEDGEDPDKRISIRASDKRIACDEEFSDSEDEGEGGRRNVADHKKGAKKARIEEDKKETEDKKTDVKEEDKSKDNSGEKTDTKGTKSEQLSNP

These are yes or no findings as the source states them, for the method shown. In cells and extracts the contact can be indirect. Some results given as binding are weak or reduced against the parent protein; the word gives no strength.

The target in assay [1] is Flag-tagged ZNF217 (zinc finger protein 217) (human) (UniProt O75362). The experiment in a line: co-IP; exogenous co-IP: anti-Flag IP from RIPA lysates of KOPN-8 and SUP-B15 cells with ectopic Flag-tagged ZNF217 (or ZNF217 1-272) or an empty vector; Protein A/G magnetic beads, overnight at 4 °C; wash 10 mM Tris-HCl pH 7.5, 1 mM EDTA, 150 mM NaCl, 1% Triton X-100, 0.2 mM sodium orthovanadate; Western blot. On the technique in general: Immunoblotting shows a protein as a band on a membrane.

Assay [2] deals with ZNF217 (zinc finger protein 217), endogenous (human (endogenous in KOPN-8 and SUP-B15)) (UniProt O75362). Nature of the assay: co-IP; endogenous co-IP: anti-ZNF217 IP (IgG control) from RIPA lysates of KOPN-8 and SUP-B15 cells; Protein A/G magnetic beads, overnight at 4 °C; wash 10 mM Tris-HCl pH 7.5, 1 mM EDTA, 150 mM NaCl, 1% Triton X-100, 0.2 mM sodium orthovanadate; Western blot.

For assay [3], the target named is Flag-tagged ZNF217_(1-272) truncation (human) (UniProt O75362). Nature of the assay: co-IP; exogenous co-IP: anti-Flag IP from RIPA lysates of KOPN-8 and SUP-B15 cells with ectopic Flag-tagged ZNF217 (or ZNF217 1-272) or an empty vector; Protein A/G magnetic beads, overnight at 4 °C; wash 10 mM Tris-HCl pH 7.5, 1 mM EDTA, 150 mM NaCl, 1% Triton X-100, 0.2 mM sodium orthovanadate; Western blot.

As for IGF2BP2 (from UniProt Q9Y6M1 1-599), the binding entry in assay [1] is “no binding”.

As to “CoREST (Co-repressor of Repressor Element 1 Silencing Transcription factor) (from UniProt Q9UKL0 1-485)”, the binding result in assay [2], in assay [3] and in assay [1] was “binds” in each case.

Consider PCIF1 (from UniProt Q9H4Z3 1-704), for which, in assay [1], the binding result was “no binding”.

As for “histone deacetylase 1 (HDAC1) (from UniProt Q13547 1-482) (enzyme)”, in assay [3], the binding entry was “binds”.

Take “HDAC2 (from UniProt Q92769 1-488) (enzyme)”: the binding entry in assay [3] was “binds”.
